In all, about 39,000 compounds went through this assay and about 220 (0.56%) showed activity. Some of the results follow.
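Further: static incubation at 37 °C against the wild-type strain, values averaged over two biological replicates.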

The assay concerns Escherichia coli K-12 BW25113. Description: relative growth (OD600 normalised to plate interquartile mean) (fraction); higher = less growth inhibition, active = 0.2 or less. The following applies: 50 µM; LB; incubation time: overnight (16-24 h).
Regarding `Nc1cc(=O)nc2[nH][nH]c(=S)n12`, the relative growth was inactive: 0.963.
Under `C=CCN1C(=O)[C@@H]2[C@@H](C1=O)[C@@H]1C=C[C@@H]2C1` stands inactive: 0.981; under `C[C@@H]1CN([C@H](C)CO)C(=O)Cc2cc(NC(=O)Nc3cccc4ccccc34)ccc2O[C@@H]1CN(C)Cc1ccc(Cl)c(Cl)c1`, inactive: 1.03.
Turning to `C[C@@H]1CN([C@@H](C)CO)C(=O)c2cccc(NC(=O)Nc3ccc(C(F)(F)F)cc3)c2O[C@@H]1CN(C)CC1CCCCC1`, the relative growth was inactive: 0.956.
Under `C[C@H](CO)N1C[C@H](C)[C@@H](CN(C)C(=O)Nc2ccc(C(F)(F)F)cc2)Oc2ccc(NC(=O)Nc3ccc(C(F)(F)F)cc3)cc2CC1=O` stands inactive: 1.02; under `O=C(C[C@H]1CC[C@H]2[C@@H](COC[C@@H](O)CN2S(=O)(=O)c2ccc(F)cc2)O1)N[C@H]1CCN(Cc2ccccc2)C1`, inactive: 1.03; under `CN1C(=O)c2cc(NS(C)(=O)=O)ccc2OC[C@@H]2O[C@H](CC(=O)N3CCOCC3)CC[C@@H]21`, inactive: 1.
For the molecule `C[C@H]1CN([C@@H](C)CO)C(=O)Cc2cc(NC(=O)Cn3cnnn3)ccc2O[C@@H]1CN(C)CC1CC1`, the relative growth was inactive: 0.984.
Under `C[C@H](CO)N1C[C@H](C)[C@H](CN(C)C(=O)c2ccncc2)OCCCC[C@H](C)Oc2ccc(NS(=O)(=O)c3cn(C)cn3)cc2C1=O` stands inactive: 1; under `C[C@@H]1CN([C@H](C)CO)C(=O)c2cccc(NC(=O)Nc3ccc(F)cc3)c2O[C@H]1CN(C)Cc1ccc(Oc2ccccc2)cc1`, inactive: 1.
As for `O=C(C[C@@H]1CC[C@H]2[C@@H](COC[C@H](O)CN2C(=O)Nc2ccc3c(c2)OCO3)O1)N1CCN(c2ccccc2)CC1`, the figure is inactive: 0.992; as for `COc1ccc(S(=O)(=O)N(C)C[C@@H]2OCc3cn(nn3)CCCC(=O)N([C@@H](C)CO)C[C@H]2C)cc1`, inactive: 0.986.
Under `C[C@H]1CN([C@@H](C)CO)S(=O)(=O)c2ccc(C#CC3(O)CCCC3)cc2O[C@@H]1CN(C)C(=O)Cc1ccccc1` stands inactive: 0.983; under `O=C(CN1CCOCC1)N[C@H]1CC[C@@H](CCNC(=O)C2CCCCC2)O[C@H]1CO`, inactive: 0.992; under `CCCC12CN3CC(CCC)(CN(C1)C3[C@@H](O)[C@@H](O)[C@@H](O)CO)C2=O` (stereo partly specified), inactive: 0.902.
On to `CCOC(=O)N(C)C[C@H]1OCc2cnnn2CCCC(=O)N([C@H](C)CO)C[C@H]1C`, for which the relative growth was inactive: 0.999.
Under `C[C@@H]1CN([C@@H](C)CO)C(=O)c2cc(NC(=O)CCN3CCOCC3)ccc2O[C@@H]1CN(C)CC1CCCCC1` stands inactive: 1; under `C=CCOC(=O)[C@@H]1[C@H]2C(=O)O[C@H](c3ccccc3)[C@H](c3ccccc3)N2[C@H](c2ccc(OCCOC(=O)[C@H]3C[C@H]4C(=O)N[C@@H](CCCCNC(C)=O)C(=O)N4[C@H]3c3cccc(OCCO)c3)cc2)[C@@]12C(=O)Nc1ccc(I)cc12`, inactive: 1.04; under `OCc1cc2c(F)cccc2s1`, inactive: 0.995.
Under `C[C@H](N[C@@H](CCc1ccccc1)C(=O)O)C(=O)N1CCC[C@H]1C(=O)O` stands inactive: 0.988; under `C[C@H]1CCCCO[C@H](CN(C)Cc2ccc(C(=O)O)cc2)[C@@H](C)CN([C@@H](C)CO)C(=O)c2cc(NC(=O)Nc3ccc4c(c3)OCO4)ccc2O1`, inactive: 1.03.
Under `COCCNC(=O)[C@@H]1[C@@H](CO)[C@@H]2Cn3c(cccc3=O)[C@H]1N2S(=O)(=O)c1ccccc1C` stands inactive: 0.991.
In the case of `NCC1CCOCC1`, the relative growth was inactive: 1.02.
Under `COc1ccc(S(=O)(=O)N(C)C[C@@H]2OCc3cnnn3CCCC(=O)N([C@@H](C)CO)C[C@H]2C)cc1` stands inactive: 0.946; under `NC(=O)C1CCN(C(=O)c2ccc(NC3=N[C@H]4CS(=O)(=O)C[C@@H]4S3)cc2)CC1`, inactive: 1.01; under `Cc1noc(C)c1S(=O)(=O)Nc1ccc2c(c1)C(=O)N([C@H](C)CO)C[C@H](C)[C@@H](CN(C)S(=O)(=O)c1cn(C)cn1)OCCCC[C@@H](C)O2`, inactive: 0.991.
As for `C[C@@H]1CN([C@@H](C)CO)C(=O)c2cc(NC(=O)Nc3cccc4ccccc34)ccc2O[C@@H]1CN(C)S(=O)(=O)c1ccc(Cl)cc1`, the figure is inactive: 1.02; as for `CN(C)CC(=O)N[C@H]1CC[C@H](CCNC(=O)C2CCC2)O[C@H]1CO`, inactive: 1.
Under `CCCn1c(=O)c(C#N)cn(C2CC2)c1=O` stands inactive: 0.986; under `COc1cc(OC)c2c(=O)c(OC)c(-c3ccccc3)oc2c1`, inactive: 1.02; under `COCC(=O)N1CC[C@]2(CC1)CN(Cc1ccc3c(c1)OCO3)[C@H](CO)c1c2c2ccc(cc2n1C)OC`, inactive: 1.01.
With `C[C@H](CO)N1C[C@H](C)[C@H](CN(C)C)Oc2ccc(NS(=O)(=O)c3cn(C)cn3)cc2CC1=O`, the relative growth is inactive: 1.01.
Under `S=C(Nc1ccccc1)Nc1ccc2c(c1)oc1ccccc12` stands inactive: 0.966; under `COc1cccc(S(=O)(=O)N(C)C[C@H]2Oc3ncc(-c4cccc(C(=O)N(C)C)c4)cc3C(=O)N([C@H](C)CO)C[C@H]2C)c1`, inactive: 1.02; under `C[C@H](CO)N1C[C@H](C)[C@H](CN(C)S(C)(=O)=O)Oc2ccc(NS(=O)(=O)c3ccc(Cl)cc3)cc2CC1=O`, inactive: 0.982.
As for `CN1CCN(C(=O)C[C@H]2CC[C@H]3[C@@H](COC[C@H](O)CN3C(=O)C3CCOCC3)O2)CC1`, the figure is inactive: 1.01.
Consider `Cc1noc(C)c1S(=O)(=O)N(C)C[C@H]1Oc2c(NS(=O)(=O)c3cn(C)cn3)cccc2C(=O)N([C@H](C)CO)C[C@H]1C`, for which the relative growth is inactive: 0.992.
On to `O=C(Nc1cc(C(F)(F)F)cc(C(F)(F)F)c1)Nc1cnn(-c2ccc([N+](=O)[O-])cc2)c1C(F)(F)F`, for which the relative growth was inactive: 0.964.
With `COc1ccc(S(=O)(=O)Nc2ccc3c(c2)C(=O)N([C@H](C)CO)C[C@@H](C)[C@H](CN(C)C(=O)Nc2ccc(F)cc2)OCCCC[C@@H](C)O3)cc1`, the relative growth is inactive: 0.991.
As for `COCCOc1ccc(N2CCN(CCn3ncc4c3nc(N)n3nc(-c5ccco5)nc43)CC2)cc1`, the figure is inactive: 1.01.
For the molecule `Nc1nc2nc[nH]c2c(=S)[nH]1`, the relative growth was inactive: 0.945.
